The experiment relates to CD2F1 mice, P1798 lymphosarcoma sc, tumor weight T/C. Put plainly: NCI In Vivo Anticancer Drug Screen. Data for tumor model P1798 Lymphosarcoma (subcutaneous) in CD2F1 (CDF1) mice. Particulars: endpoint: mean tumor weight, higher = larger tumour. How it is done:
The antitumor activity of compounds was measured in mice bearing transplantable tumors. Survival or tumor size were measured and the results are expressed as the measurement made in the treated group (T) divided by the measurement made in the vehicle treated control group (C). The tumor model used in this assay is P1798 Lymphosarcoma (subcutaneous) in CD2F1 (CDF1) mice

[1] abbreviates: dose: 100.0 mg/kg/injection, schedule: Q01DX010 (sc), vehicle: steriod suspending solution.
Where [2] appears, read: dose: 12.5 mg/kg/injection, schedule: Q01DX010 (sc), vehicle: steriod suspending solution.
The mark [3] stands for this setting: dose: 25.0 mg/kg/injection, schedule: Q01DX010 (sc), vehicle: steriod suspending solution.
[4] abbreviates: dose: 50.0 mg/kg/injection, schedule: Q01DX010 (sc), vehicle: steriod suspending solution.
The mark [5] stands for this setting: dose: 6.25 mg/kg/injection, schedule: Q01DX010 (sc), vehicle: steriod suspending solution.

SMILES strings stand for the structures. Not every entry of the source has a single result; some have several. This list holds those alone. The source may hold further records. Results that share an entry do not match, cause unknown; they may come from other doses, times, organisms or constructs than stated. Signs of the kind (2×) count equal records among those shown.

This passage reports T/C results from PubChem BioAssay AID268 (DTP/NCI, 2004).

As for `CC1C[C@@H]2[C@H]([C@@H](O)C[C@@]3(C)[C@H]2CC[C@]3(O)C(=O)CF)[C@@]2(C)CCC(=O)C=C12` (some centres undefined), the T/C under setting [1] is given as 17 % of control, 23 % of control, 106 % of control.

`O=CN(O)CC(=O)O`: the T/C was 59 % of control and 100 % of control (dose: 125.0 mg/kg/injection, schedule: Q01DX010 (ip), vehicle: saline); 54 % of control and 110 % of control (dose: 500.0 mg/kg/injection, schedule: Q01DX010 (ip), vehicle: saline).

Take `CC(=O)OCC(=O)[C@@]1(O)CC[C@H]2[C@@H]3CCC4=CC(=O)[C@H](C)C[C@]4(C)[C@@]3(F)[C@@H](O)C[C@@]21C`: the T/C under setting [2] was 2 % of control (2×) and 65 % of control.

Regarding `COc1cc2c3c(c4ccc(OC)c(OC)c4c2cc1OC)CN1CCC[C@@H]1C3`, the T/C (dose: 2.5 mg/kg/injection, schedule: Q01DX010 (ip), vehicle: saline) was 61 % of control and 100 % of control.

Turning to `C[C@]12CCC(=O)C=C1CC[C@@H]1[C@@H]2[C@@H](O)C[C@@]2(C)[C@H]1CC[C@]2(O)C(=O)CO`, the T/C is, setting by setting: under setting [2], 58 % of control, 82 % of control, 102 % of control; under setting [3], 6 % of control, 7 % of control, 112 % of control; under setting [4], 2 % of control, 3 % of control, 92 % of control.

Regarding `C[C@]12CC[C@@H]3c4ccc(O)cc4CC[C@H]3[C@@H]1CC(=O)[C@@H]2O`, under setting [5], the T/C was 79 % of control and 118 % of control.

Regarding `C[C@]12CC[C@@H]3c4ccc(O)cc4CC[C@H]3[C@@H]1C[C@H](O)C2`, under setting [3], the T/C was 82 % of control and 114 % of control.

Regarding `C=CCOc1ccc2c(c1)CC[C@@H]1[C@@H]2CC[C@]2(C)[C@@H](O)[C@@H](O)C[C@@H]12`, the T/C was 52 % of control and 86 % of control under setting [3]; 62 % of control and 95 % of control under setting [4].

For the compound `CC(=O)OCC(=O)[C@@]1(O)CC[C@H]2[C@@H]3CCC4=CC(=O)[C@H](C)C[C@]4(C)[C@H]3[C@@H](O)C[C@@]21C`, the T/C under setting [3] is recorded as 4 % of control, 14 % of control, 110 % of control; the T/C under setting [4] is 3 % of control (2×) and 98 % of control; the T/C under setting [1] was 2 % of control (2×) and 30 % of control.

As to `C=C1C[C@H]2[C@@H]3C=C(C)C4=CC(=O)CC[C@]4(C)[C@H]3CC[C@]2(C)[C@@]1(OC(C)=O)C(C)=O`, the T/C under setting [1] was 106 % of control and 156 % of control.

Turning to `CC(=O)O[C@]1(C(C)=O)CC[C@H]2[C@@H]3C[C@H](C)C4=CC(=O)C=C[C@]4(C)[C@@]3(F)[C@@H](O)C[C@@]21C`, the T/C is 6 % of control (2×) and 34 % of control under setting [4]; 3 % of control, 4 % of control, 32 % of control under setting [1].

With `C[C@]12C=CC(=O)C=C1CC[C@@H]1[C@@H]2CC[C@]2(C)OC(=O)CC[C@@H]12`, the T/C under setting [4] was 79 % of control and 118 % of control.

In the case of `CC(=O)[C@@]12OC(C)(C)O[C@@H]1C[C@H]1[C@@H]3C[C@H](C)C4=CC(=O)CC[C@]4(C)[C@H]3CC[C@@]12C`, the T/C was 50 % of control and 107 % of control under setting [3]; 11 % of control and 119 % of control under setting [4]; 4 % of control and 114 % of control under setting [1].

Take `CC(=O)[C@H]1CC[C@H]2[C@@H]3C[C@H](C)C4=CC(=O)CC[C@]4(C)[C@H]3C(=O)C[C@]12C`: under setting [4], the T/C was 61 % of control, 79 % of control, 102 % of control.

As for `C[C@]12C=CC(=O)C=C1CC[C@H]1[C@@H]3C[C@@H](O)[C@](O)(C(=O)CO)[C@@]3(C)C[C@H](O)[C@@]12F`, the T/C is 2 % of control, 3 % of control, 103 % of control under setting [2]; 2 % of control, 5 % of control, 30 % of control under setting [3]; 2 % of control and 29 % of control under setting [4].

Turning to `C[C@]12C[C@H](O)[C@H]3[C@@H](CCC4=CC(=O)CC[C@@]43C)[C@@H]1CC[C@@H]2C(=O)CO`, the T/C runs as follows: under setting [4], 38 % of control, 57 % of control, 97 % of control; under setting [1], 5 % of control, 7 % of control, 91 % of control.

As to `C[C@]12CC[C@@H]3c4ccc(O)cc4CC[C@H]3[C@@H]1C[C@@H](O)[C@@H]2O`, the T/C runs as follows: under setting [2], 66 % of control and 94 % of control; under setting [4], 52 % of control and 97 % of control.

As to `C[C@@H]1C[C@H]2[C@@H]3CCC4=CC(=O)C=C[C@]4(C)[C@@]3(F)[C@@H](O)C[C@]2(C)[C@@]1(O)C(=O)CO`, under setting [5], the T/C was 2 % of control and 114 % of control.

Consider `C=CCOc1ccc2c(c1)CC[C@@H]1[C@@H]2CC[C@@]2(C)[C@H]1CC[C@]2(C)O`, for which the T/C under setting [5] is 59 % of control and 89 % of control; the T/C under setting [2] was 71 % of control and 101 % of control; the T/C under setting [3] is 52 % of control and 96 % of control; the T/C under setting [4] is 38 % of control and 76 % of control.

For the compound `C[C@]12C=CC(=O)C=C1CC[C@@H]1[C@@H]2[C@@H](O)C[C@@]2(C)[C@H]1CC[C@]2(O)C(=O)CO`, the T/C under setting [3] is on record as 7 % of control, 9 % of control, 112 % of control; the T/C under setting [4] was 2 % of control (2×) and 121 % of control; the T/C under setting [1] is 2 % of control, 4 % of control, 107 % of control.

With `C#C[C@]1(O)CC[C@H]2[C@@H]3CCc4cc(O)ccc4[C@H]3CC[C@@]21C`, the T/C by setting is: under setting [5], 50 % of control and 85 % of control; under setting [2], 56 % of control and 98 % of control; under setting [4], 63 % of control and 92 % of control.

Regarding `CC(=O)[C@@]1(O)CC[C@H]2[C@@H]3C[C@H](C)C4=CC(=O)C=C[C@]4(C)[C@@]3(F)[C@@H](O)C[C@@]21C`, the T/C was 15 % of control, 17 % of control, 51 % of control under setting [3]; 2 % of control, 4 % of control, 36 % of control under setting [4]; 3 % of control, 6 % of control, 35 % of control under setting [1].

For the compound `C=CCOc1ccc2c(c1)CC[C@@H]1[C@@H]2CC[C@]2(C)[C@@H](O)[C@H](O)C[C@@H]12`, the T/C was 67 % of control and 112 % of control under setting [5]; 57 % of control and 96 % of control under setting [2]; 64 % of control and 96 % of control under setting [3]; 44 % of control and 82 % of control under setting [4].

Consider `CC(=O)O[C@H]1CC[C@H]2[C@@H]3CC[C@H]4CCCC[C@]4(C)[C@H]3CC[C@]12C`, for which the T/C under setting [1] was 98 % of control and 158 % of control.
